According to the supplement of paper PMC3334620:
In all, about 33,000 sequences were measured (“E-score (-0.5 to 0.5)”: median about -0.012, highest 2% from about 0.29 on). The list shows a part of the results.

Each sequence was assayed against T1, Ybr033w (UniProt P38073) (assay: PBM E-score (8-mer binding enrichment) (E-score (-0.5 to 0.5)); higher = stronger / more preferred TF binding; most listed sequences are background and not binding sites). Details: protein concentration: 200 nM; construct: GST-full length.
T1 sequence: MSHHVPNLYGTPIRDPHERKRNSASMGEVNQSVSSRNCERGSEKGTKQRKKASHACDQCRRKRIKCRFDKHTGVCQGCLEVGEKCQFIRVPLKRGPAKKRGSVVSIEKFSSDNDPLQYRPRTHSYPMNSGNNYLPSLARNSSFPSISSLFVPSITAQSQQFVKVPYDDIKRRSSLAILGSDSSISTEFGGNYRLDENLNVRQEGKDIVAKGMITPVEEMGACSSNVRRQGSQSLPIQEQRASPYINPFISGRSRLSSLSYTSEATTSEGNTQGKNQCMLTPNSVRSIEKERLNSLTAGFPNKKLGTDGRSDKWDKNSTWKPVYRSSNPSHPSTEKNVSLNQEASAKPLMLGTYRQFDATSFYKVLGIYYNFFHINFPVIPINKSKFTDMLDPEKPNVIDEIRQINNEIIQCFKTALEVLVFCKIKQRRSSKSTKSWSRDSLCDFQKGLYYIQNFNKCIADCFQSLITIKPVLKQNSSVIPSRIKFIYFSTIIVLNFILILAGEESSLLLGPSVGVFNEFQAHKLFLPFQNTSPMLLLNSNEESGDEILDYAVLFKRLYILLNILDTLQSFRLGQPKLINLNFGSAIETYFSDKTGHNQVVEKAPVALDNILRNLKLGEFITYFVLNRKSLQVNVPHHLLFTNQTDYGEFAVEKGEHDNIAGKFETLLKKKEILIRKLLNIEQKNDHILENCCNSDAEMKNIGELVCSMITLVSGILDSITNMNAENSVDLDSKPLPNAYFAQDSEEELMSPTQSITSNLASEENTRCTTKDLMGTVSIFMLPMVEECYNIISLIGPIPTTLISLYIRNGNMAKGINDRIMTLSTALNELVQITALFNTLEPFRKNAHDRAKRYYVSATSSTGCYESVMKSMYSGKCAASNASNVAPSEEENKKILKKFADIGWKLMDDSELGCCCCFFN
Procedure: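 Universal 'all 10-mer' protein binding microarrays (Agilent AMADID 015681) probed with GST-tagged S. cerevisiae TFs (full-length or DBD) made by in vitro transcription/translation (PURExpress), about 100-200 nM. Bound TF was detected with fluorescent anti-GST. Each ungapped 8-mer (which stands for itself and its reverse complement) is scored by the PBM enrichment score (E-score), a modified Wilcoxon-Mann-Whitney statistic from -0.5 to +0.5, computed with the Universal PBM Analysis Suite. Scale: above 0.35 generally sequence-specific binding.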

| Sequence | PBM E-score |
| --- | --- |
| CTGCAGGC | -0.233 |
| CAACCACG | -0.0262 |
| GGTTATAA | 0.0379 |
| CGAGGATA | 0.0747 |
| AAGCCTAT | -0.02 |
| GAAGCGAC | -0.0766 |
| ATCGTGGA | -0.0367 |
| CATGCCTC | -0.123 |
| AGCCTTCG | -0.0874 |
| CATGCTCA | 0.062 |
| CTAGCGGC | -0.289 |
| CAGGCAGA | -0.00645 |
| GTAGCTAA | -0.0141 |
| AGAGGGTG | -0.238 |
| AACTGGTC | -0.0196 |
| AGTAGGCC | -0.0607 |
| GCCGCGTA | -0.00775 |
| ATGCGCAA | -0.0357 |
| ATTATCCC | 0.321 |
| ACCAGCTA | -0.0658 |
| ACTGCCCA | -0.109 |
| CGTGAAAG | -0.0644 |
| CCATAGGG | -0.0439 |
| CTAAGTGC | -0.0998 |
| CGTCATTC | 0.19 |

| Sequence | PBM E-score |
| --- | --- |
| TGCAAGCA | -0.112 |
| AGTCGTCG | -0.125 |
| GTCTGCGA | -0.136 |
| AGATGATC | 0.246 |
| GCTCGCCA | 0.00146 |
| GCCGCAGA | -0.153 |
| CATTTCAG | -0.0263 |
| ACTGGTAA | 0.162 |
| GCTCCCAA | -0.155 |
| AGCAGTTG | 0.0122 |
| AAACGTGA | 0.12 |
| GTCCGCCA | -0.0958 |
| TTGCTAAA | 0.147 |
| AATGCTTG | -0.0369 |
| GCAGATGC | -0.222 |
| GGCCACAC | -0.201 |
| TCGTTGCA | -0.0454 |
| AAGCCAAT | 0.102 |
| CACAGGCG | -0.217 |
| TAACAAAA | 0.278 |
| ACATTGTA | 0.0832 |
| CGGGCGTC | -0.192 |
| CTCGATTA | 0.162 |
| ATATGGCC | -0.133 |
| GAAAACTA | 0.213 |

| Sequence | PBM E-score |
| --- | --- |
| AGCTAAAT | 0.11 |
| CGGAGAGC | -0.25 |
| ACGTGGCT | -0.0732 |
| GGAAACAC | -0.0424 |
| AGAGTTGC | 0.0211 |
| GCAAGGCA | -0.0315 |
| AACACACG | 0.0131 |
| AACGTTGA | 0.0657 |
| CATACACC | -0.00987 |
| TATGTTCA | 0.186 |
| AGGCTGCC | -0.125 |
| TGCACCAA | -0.104 |
| CAAGGGTA | -0.265 |
| ATTGCCTC | -0.029 |
| CGATTGTA | 0.173 |
| CGCGATCA | 0.0933 |
| CCTATTAC | 0.0857 |
| AATCCAAC | 0.163 |
| GCGAATGA | 0.119 |
| ACGTTTCT | 0.0498 |
| CTCTCCAC | -0.243 |
| AGGTGGTA | -0.0212 |
| ACGACCCT | -0.175 |
| CACCTCTG | -0.0826 |
| CGCTTATA | 0.0551 |

| Sequence | PBM E-score |
| --- | --- |
| CGACGAAC | -0.106 |
| ACTTTCTG | 0.116 |
| CGTCTTTC | -0.0258 |
| CTGTGTCA | -0.203 |
| AGATGCCC | -0.0869 |
| AAGCAAAG | 0.0699 |
| GCAGTAGA | -0.071 |
| CACTCCAC | 0.063 |
| AGACTCCT | -0.0341 |
| ACGCTTCG | -0.14 |
| CGCCGGCC | -0.334 |
| TCACGAAA | 0.164 |
| ATCTAGGC | -0.115 |
| CAACCTGC | -0.27 |
| ACTACCGC | -0.103 |
| ACCGCGGC | -0.0548 |
| CCCTTCGG | -0.154 |
| AAGGCTCG | -0.126 |
| TGCCTCAA | -0.0307 |
| AGACTCCC | -0.34 |
| AAAGTAGA | 0.138 |
| GATCGCTA | -0.0568 |
| GCACTGGA | -0.099 |
| GCCAATCC | -0.159 |
| CTCAGGGA | -0.272 |

| Sequence | PBM E-score |
| --- | --- |
| CTCGACGA | -0.165 |
| CCTGCTCG | -0.401 |
| ATGCGGCA | -0.0591 |
| GTCTAATA | 0.0847 |
| TCGGGAAA | 0.253 |
| AAACGCAT | -0.0811 |
| TATGATAA | 0.274 |
| CCATCCGA | -0.0885 |
| ATTTGACA | 0.148 |
| ATAATCAA | 0.229 |
| CGGCGGAG | -0.157 |
| AGAGTGCC | -0.157 |
| GCAATTTA | 0.307 |
| CTAAGGGC | -0.121 |
| CGCTCTAC | -0.144 |
| ATTGCCGG | -0.0444 |
| CAGCGCAC | -0.0912 |
| AGGCTCGG | -0.0289 |
| ACTTTACA | 0.155 |
| TATTGGAA | 0.128 |
| CCCGACTA | -0.168 |
| GCAGGGGC | -0.251 |
| GTCTGATA | 0.0219 |
| AGAAACCG | -0.125 |
| AAGTTTCG | 0.26 |

| Sequence | PBM E-score |
| --- | --- |
| AAGTGATA | 0.0674 |
| TAATTGGA | 0.242 |
| ACCTCAAT | 0.0334 |
| CGATCAGA | -0.0631 |
| CGAATATA | 0.156 |
| AGTACTTG | 0.0907 |
| CTCCAGGA | -0.141 |
| GCCGATAA | -0.0542 |
| CGGGCACA | -0.197 |
| AACATGTT | 0.144 |
| CACGGAGA | -0.0267 |
| TAAAATCA | 0.274 |
| CGACCGCC | -0.161 |
| CGGGGCGC | -0.311 |
| ACGGCGGG | -0.0856 |
| GGAGCAAA | 0.0274 |
| TTCAGAAA | 0.0979 |
| CAAGCCTC | -0.166 |
| CCAAACCC | -0.0187 |
| ATGTAATG | 0.263 |
| AACAGGCC | -0.187 |
| GTTTCCAA | -0.00959 |
| ATAGGATA | 0.104 |
| ATGCGCAG | -0.0878 |
| GGGTCAAA | 0.0144 |

| Sequence | PBM E-score |
| --- | --- |
| AGTCCCTA | -0.128 |
| ACGTATAG | -0.0583 |
| GACTAAAA | 0.0881 |
| AACTTACC | 0.126 |
| CTAACAAC | 0.0894 |
| AAATTCTA | 0.217 |
| CCGGTATA | 0.00427 |
| ACGGATCA | 0.236 |
| AGTCAATA | 0.169 |
| AGCGGCGA | -0.161 |
| GCTTTGCC | -0.227 |
| GCTTCCAA | 0.0624 |
| CCCGCACA | -0.0799 |
| AAGGTTGT | 0.017 |
| TTAACTAA | 0.274 |
| TCCCCACA | -0.218 |
| GCAAAGTA | 0.113 |
| AACCTGGG | -0.324 |
| GGGTTCTA | -0.097 |
| AAAGCTTG | 0.147 |
| AGTGAGGA | -0.0172 |
| AAAAGCCC | -0.113 |
